Experimental data taken from article PMC4336329 (PLoS ONE, 2015).
Screen size: about 310,000 compounds; about 14,000 (4.5%) showed an effect of 50% or more. Effects have a minus sign here. Some of the results follow.

molecular target: human ether-à-go-go-related gene (hERG) potassium channel (human, UniProt Q12809); experiment: primary screen, population patch clamp on CHO cells stably expressing hERG
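Also: peak tail current of the secondary pulse compared with the same well before compound.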

Sequence of human ether-à-go-go-related gene (hERG) potassium channel (Q12809 whole entry, looked up): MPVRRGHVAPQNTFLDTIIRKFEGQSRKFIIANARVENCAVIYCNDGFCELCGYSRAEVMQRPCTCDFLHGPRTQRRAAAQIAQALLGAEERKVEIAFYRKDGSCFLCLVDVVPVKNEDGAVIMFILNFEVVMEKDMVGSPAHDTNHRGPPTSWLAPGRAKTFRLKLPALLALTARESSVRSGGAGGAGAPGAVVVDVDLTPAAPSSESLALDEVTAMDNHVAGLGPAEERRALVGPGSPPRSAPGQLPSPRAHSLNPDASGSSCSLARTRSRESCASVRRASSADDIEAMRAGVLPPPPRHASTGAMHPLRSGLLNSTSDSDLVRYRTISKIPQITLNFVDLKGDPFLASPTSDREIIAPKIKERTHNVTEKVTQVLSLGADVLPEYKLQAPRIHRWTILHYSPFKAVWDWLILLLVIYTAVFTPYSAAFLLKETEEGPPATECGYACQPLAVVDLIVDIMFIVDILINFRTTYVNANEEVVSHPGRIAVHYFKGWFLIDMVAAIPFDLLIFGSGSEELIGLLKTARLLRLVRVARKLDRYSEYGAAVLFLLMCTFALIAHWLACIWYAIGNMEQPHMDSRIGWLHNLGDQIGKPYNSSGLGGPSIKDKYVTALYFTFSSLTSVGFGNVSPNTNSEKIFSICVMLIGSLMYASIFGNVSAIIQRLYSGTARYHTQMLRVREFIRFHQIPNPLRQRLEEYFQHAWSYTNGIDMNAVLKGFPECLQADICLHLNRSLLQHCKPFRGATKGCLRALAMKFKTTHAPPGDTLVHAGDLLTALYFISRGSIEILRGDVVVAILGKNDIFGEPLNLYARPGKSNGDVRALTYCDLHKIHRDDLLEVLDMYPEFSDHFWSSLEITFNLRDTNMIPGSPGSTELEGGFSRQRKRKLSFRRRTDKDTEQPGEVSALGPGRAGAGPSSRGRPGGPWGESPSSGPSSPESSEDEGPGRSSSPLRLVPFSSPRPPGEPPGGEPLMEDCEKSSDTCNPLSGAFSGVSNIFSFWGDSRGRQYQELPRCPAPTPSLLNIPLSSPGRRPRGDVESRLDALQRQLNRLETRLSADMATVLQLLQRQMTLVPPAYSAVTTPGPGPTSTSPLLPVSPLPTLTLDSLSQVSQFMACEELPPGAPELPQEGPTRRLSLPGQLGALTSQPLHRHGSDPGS

Row | SMILES | hERG current change (%, negative = inhibition) at 10uM
1 | CCOc1ccc(/C=N/NC(=O)c2cc(-c3ccco3)nc3ccccc23)cc1 | 3.56%
2 | CN1CCSc2ccc(C(=O)NCc3cccc(Br)c3)cc21 | 0.343%
3 | CC(C)c1ccccc1 | 15.3%
4 | COc1ccc(OC)c(-c2csc(NC(=O)c3ccc(F)cc3)n2)c1 | -46.8%
5 | CCOC(=O)N1CCC(N2CCCC(C(=O)c3ccccc3OC)C2)CC1 (stereo not shown) | -67.7%
6 | c1ccc2sc(NC3=NCCN3)nc2c1 | -26.2%
7 | CCCCCn1c(SCC#N)nc2cc(C(=O)NCC3CCCO3)ccc2c1=O (stereo not shown) | -52.7%
8 | CCCn1nc(C(=O)OCC(=O)c2ccc3c(c2)NC(=O)CO3)c2ccccc2c1=O | -23%
9 | Cn1nnnc1SCC1=C(C(=O)O)N2C(=O)C(NC(=O)C3CC3c3ccccc3)C2SC1 (stereo not shown) | 41%
10 | O=S(=O)(N/N=C\c1ccc(-c2ccccc2Cl)o1)c1ccccc1 | 10.4%
11 | O=S1(=O)CCN(C(CO)c2ccccc2)CC1 (stereo not shown) | 18.2%
12 | CCOC(=O)C1=C(c2ccccc2)OC(N)=C(C#N)C1c1ccc(Br)s1 (stereo not shown) | 14.1%
13 | CCOC(=O)c1ccc(-n2nc(C)cc2C)cc1 | 5.63%
14 | O=C(O)Cc1c[nH]c2ccc(O)cc12 | 15.8%
15 | COCCCNC(=O)CCn1c(=O)c2ccccc2n(CC(=O)Nc2c(C)cccc2C)c1=O | 16.9%
16 | COc1ccc(OCCC(=O)OCC(=O)NCc2ccc(F)cc2)cc1 | 3.53%
17 | COc1ccc(N2CCN(Cc3cc(=O)c(OCC(=O)NC4CCCC4)co3)CC2)cc1 | -23.1%
18 | CCN(CC)c1ccc(/C=N/NC(=O)c2c(Cl)cnn2C)c(O)c1 | 3.26%
19 | O=C(CC1NCCc2ccccc21)Nc1ccccc1Cl (stereo not shown) | 16.6%
20 | Cc1ccc(-c2nnc(-c3ccc(NC(=O)c4ccco4)cc3)o2)cc1 | 10.5%
21 | CC1CCN(S(=O)(=O)c2ccc(NC(=O)N3c4ccccc4Sc4ccccc43)cc2)CC1 | 14.6%
22 | CCOc1cc(/C=N/Nc2nc(-c3cccc(S(=O)(=O)N4CCCC4)c3)cs2)ccc1O | 3.28%

Row | SMILES | hERG current change (%, negative = inhibition) at 10uM
23 | O=c1c(Cc2ccc(F)cc2)c(O)ccn1CCCN1CCOCC1 | 17.3%
24 | O=C(c1ccccc1)c1cccc[n+]1[O-] | 19.7%
25 | Cc1ccccc1OCc1nc(-c2ccc(NC(=O)c3ccco3)cc2)no1 | 5.41%
26 | O=C(OCC(=O)N1CCCc2ccccc21)c1cncc(Br)c1 | -5.52%
27 | COc1ccccc1CN(C)CC(=O)Nc1ccc(Cl)cc1F | -5.73%
28 | Cc1nn2c(N3CCCC3)c3c(nc2c1-c1ccccc1)CCC3 | 7.19%
29 | CC1CCN(C(=O)Nc2ccc3nsnc3c2)CC1 | -8.2%
30 | O=C(O)CCc1ccc(-c2cccs2)o1 | 6.62%
31 | CCCn1nnc(NC(=O)COc2ccc(Cl)cc2)n1 | -6.92%
32 | O=C(Nc1cccc(C(=O)N2CCN(c3ccccc3)CC2)c1)c1ccco1 | -15.8%
33 | COc1ccc(NC(=O)/C=C/c2ccc(C)o2)cc1S(=O)(=O)N1CCOCC1 | -14.2%
34 | CC1CCN(C2CC(=O)N(c3ccc(Br)cc3Br)C2=O)CC1 (stereo not shown) | 2.17%
35 | CN(C)S(=O)(=O)n1cc(/C=C(\NC(=O)c2ccccc2Cl)C(=O)NCCN2CCOCC2)c2ccccc21 | 11.3%
36 | CC(c1ccc(F)cc1)n1cc(C(=O)NCc2ccc3c(c2)OCO3)nn1 (stereo not shown) | -3.81%
37 | COc1ccc(NC(=O)CCCSc2ccccc2)cc1 | 14.7%
38 | CCOc1ccc(NC(=S)NNc2ccnc3cc(Cl)ccc23)cc1 | -17.3%
39 | CCOc1ccccc1NC1=NCC(=O)N1Cc1ccc(F)cc1 | -5.41%
40 | Cc1ccsc1C(=O)OCC(=O)Nc1nnc(-c2ccccc2)o1 | 13.9%
41 | COc1ccc(NCC(=O)N/N=C/C=C/c2ccccc2[N+](=O)[O-])cc1 | 5.54%
42 | COc1cc(Br)c(/C=C/c2ccc3cccc(O)c3n2)cc1OC | 15.3%
43 | CCOc1cc(N2CCOCC2)c(OCC)cc1NC(=O)c1ccc(C)s1 | 15.4%
44 | CCOc1ccccc1N1CCN(C(=O)c2cc(-c3cc(OC)ccc3OC)nc3ccccc23)CC1 | -12.1%

Row | SMILES | hERG current change (%, negative = inhibition) at 10uM
45 | Cc1nn(Cc2noc(C(=O)NCc3ccc(F)cc3)n2)c(C)c1Br | 6.28%
46 | COc1ccc(CC2C(=O)OC(C)(C)OC2=O)c(Cl)c1OC | 11.3%
47 | CCOC(=O)N1CCN(C(=O)/C(=C/c2ccc(OC)c(OC)c2)NC(=O)c2ccccc2)CC1 | -34.5%
48 | CCC(C(=O)NC1CCCCCC1)n1nc(C)n2c(cc3occc32)c1=O (stereo not shown) | -41.6%
49 | CCOC(=O)C(=Cc1ccc(-n2cncn2)cc1)C(=O)OCC | -1.42%
50 | COc1ccc(Cl)cc1NC(=O)Cn1nnc(C(=O)NCc2ccc3c(c2)OCO3)c1N | 2.21%
51 | Cc1ccc(C2=N/C(=C\c3c(C)nn(-c4ccccc4)c3N3CCCC3)C(=O)O2)cc1 | 5.11%
52 | CCOc1cc(C(=O)Nc2ccc(S(=O)(=O)N3CCCCC3)cc2)ccc1OCC(=O)N1CCOCC1 | -14.4%
53 | Cc1ccc(S(=O)(=O)N2CCOCC2)c2nsnc12 | -3.38%
54 | Nc1ccc(-c2c3ccc(=O)cc-3oc3cc(O)ccc23)cc1C(=O)O | 15.4%
55 | O=C1c2cc(Cl)ccc2OC2(CCNCC2)C12CC(c1ccc(Cl)cc1)=NO2 (stereo not shown) | 4.54%
56 | COc1cc(CC(=O)OCC(=O)Nc2ccccc2C#N)cc(OC)c1OC | 5.92%
57 | COc1ccc(C2CC(c3cccs3)=NN2C(=O)COC(=O)c2cc3ccccc3cc2O)cc1OC (stereo not shown) | 3.18%
58 | CC(C(=O)N1CCCc2ccccc21)N1CCN(S(=O)(=O)c2ccccc2F)CC1 (stereo not shown) | -23%
59 | Cc1cccc(-c2noc(CCC(=O)NC3CCCCC3)n2)c1 | 4.37%
60 | CSc1nc2ccc(NS(=O)(=O)c3ccc(Br)s3)cc2s1 | 14.3%
61 | COc1ccccc1CNC(=O)CSc1nnc2c(Cl)cc(C(F)(F)F)cn12 | 5.16%
62 | Cc1ccc(CNC(=O)CCCc2c[nH]c3ccccc23)cc1 | -18.9%
63 | OC1(c2cccs2)CN(c2ccc(Cl)cc2)C2=[N+]1CCCC2.[Br-] (stereo not shown) | -59.5%
64 | CC1CCCN(C(=O)Cn2c(=O)oc3cc(S(=O)(=O)N4CCCCC4)ccc32)C1 (stereo not shown) | 8.08%
65 | CCc1n[nH]c2c1/C(=N/O)CCC2 | 4.05%
66 | S=C(NCCN1CCOCC1)N/N=C/c1cccs1 | 14.4%

Row | SMILES | hERG current change (%, negative = inhibition) at 10uM
67 | CC(=O)c1ccc(NC(=O)CSc2nnc(NC(=O)c3ccco3)s2)cc1 | -26.9%
68 | CN1C(C(=O)NCCc2cccs2)CC2Cn3c(nc4cc(Cl)c(Cl)cc43)C21 (stereo not shown) | -63.6%
69 | O=C1c2ccccc2C2(c3cc(C(F)(F)F)cc(C(F)(F)F)c3)NCCN12 (stereo not shown) | -0.536%
70 | O=C(CCN1C(=O)c2ccccc2S1(=O)=O)Nc1ccc2c(c1)OCCO2 | 17.2%
71 | CCOc1ccc(S(=O)(=O)NCCCn2ccnc2)cc1NC(C)=O | -14.4%
72 | O=C(CCC(=O)OCC(F)(F)C(F)F)Nc1ccc(Cl)cc1 | -9.24%
73 | CC(C)(C)C(=O)c1cn(CC(=O)O)c2ccccc12 | 9.17%
74 | O=C(NCCc1ccccc1)C1CCN(C(=O)c2ccc([N+](=O)[O-])cc2)CC1 | -63.2%
75 | COC(=O)c1cc(NC(=O)c2cc(C(C)(C)C)nn2Cc2cccc(C)c2)ccc1N1CCOCC1 | 15%
76 | COc1ccc(C(CNC(=O)c2oc3ccc(F)cc3c2C)N2CCCCC2)cc1 (stereo not shown) | -59.9%
77 | N/C(=N\OC(=O)Cc1ccc(-c2ccccc2)cc1)c1cccc([N+](=O)[O-])c1 | 13.6%
78 | CNC(=O)CSc1nc2cccnc2n1-c1ccc(F)cc1 | 11.1%
79 | CC(C)C(C(=O)C=[N+]=[N-])N1C(=O)c2ccccc2C1=O (stereo not shown) | 5.77%
80 | CCC12CN(C(=O)c3ccc([N+](=O)[O-])cc3)CC(CC)(CN(C(=O)c3ccc([N+](=O)[O-])cc3)C1)C2=O | -16.6%
81 | Cc1cccc(C)c1NC(=O)CNC(=O)CCC(=O)N1CCOCC1 | 11.6%
82 | O=C(NCCS(=O)(=O)NCC1CCCO1)c1ccccc1 (stereo not shown) | 14.3%
83 | CCOc1ccc(NC(=O)CSc2ccc3nnc(-c4ccccn4)n3n2)cc1 | -54.3%
84 | O=C(Cc1ccccc1)NS(=O)(=O)c1ccc(N=NN2CCOCC2)cc1 | 24.3%
85 | CS(=O)(=O)c1cnc(-c2ccccc2)nc1Oc1ccc(F)cc1 | 9.61%
86 | OCCNc1nc(OCC(F)(F)F)nc(N2CCN(C34CC5CC(CC(C5)C3)C4)CC2)n1 | -37.9%
87 | O=C(COC(=O)c1ccco1)c1ccc(Cl)cc1 | 20.7%
88 | CC(Sc1nc(-c2ccccc2)cc(C(F)(F)F)n1)C(=O)N1CCCC1 (stereo not shown) | 1.76%
